Whole data set: some 33,000 sequences, median “E-score (dimensionless, -0.5 to 0.5)” near -0.058, cut for the highest 2% near 0.35. Some of the results follow.
These sequences were tested on MvaT (assay: PBM 8-mer E-score (mean of HK and ME arrays) (E-score (dimensionless, -0.5 to 0.5)); higher = stronger relative binding preference; most listed sequences are background and not binding sites).
How it was run: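 Full-length P. aeruginosa MvaT, with glutathione S-transferase fused to its N-terminus (cloned into pTH6838 by isothermal assembly), was tested by protein binding microarray using a previously described protocol. Two universal double-stranded 60-mer arrays (ME and HK) were used, each with a constant 25-mer primer region and a variable 35-mer region covering all 8-mers. The rank-based 8-mer E-score (-0.5 to 0.5) is the mean of the two arrays, parsed with a custom Python script.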

**Q.** Which “PBM 8-mer E-score” value does the source give for CGGTGGTA here?
**A.** The value was -0.0955.

**Q.** How did the “PBM 8-mer E-score” value turn out when GTAGGTCA was run?
**A.** Its value is -0.116.

**Q.** How did the “PBM 8-mer E-score” value turn out when ACCTGCAC was run?
**A.** The value was -0.11.

**Q.** Which “PBM 8-mer E-score” value does the source give for CATATCGC here?
**A.** The value was 0.0191.

**Q.** GGGGGAAC was tested. Which “PBM 8-mer E-score” value did it give?
**A.** The value was -0.217.

**Q.** With AAACCACG as the sequence, how does the “PBM 8-mer E-score” value read?
**A.** Its value is 0.0879.

**Q.** CCCGAGAC was tested. Which “PBM 8-mer E-score” value did it give?
**A.** The value was -0.177.

**Q.** For GAAATTGC, which “PBM 8-mer E-score” value is on record?
**A.** Its value is 0.158.

**Q.** For GGTTACAC, which “PBM 8-mer E-score” value is on record?
**A.** Its value is -0.12.

**Q.** With ATTAAATC as the sequence, how does the “PBM 8-mer E-score” value read?
**A.** Its value is 0.382.

**Q.** With ATTGATTA as the sequence, how does the “PBM 8-mer E-score” value read?
**A.** Its value is 0.285.

**Q.** Which “PBM 8-mer E-score” value does the source give for GTATAATA here?
**A.** The value was 0.416.

**Q.** With ACGTCGCC as the sequence, how does the “PBM 8-mer E-score” value read?
**A.** The value was -0.0866.

**Q.** Which “PBM 8-mer E-score” value does the source give for ACCGGGGG here?
**A.** The value was -0.206.

**Q.** How did the “PBM 8-mer E-score” value turn out when GTCCTAAA was run?
**A.** The value was 0.00186.

**Q.** How did the “PBM 8-mer E-score” value turn out when GTGAGTAA was run?
**A.** Its value is 0.102.

**Q.** AGGGCATA was tested. Which “PBM 8-mer E-score” value did it give?
**A.** Its value is -0.0648.

**Q.** For CGTGTTAC, which “PBM 8-mer E-score” value is on record?
**A.** The value was 0.0568.

**Q.** With TACAGGCA as the sequence, how does the “PBM 8-mer E-score” value read?
**A.** Its value is 0.0123.

**Q.** Which “PBM 8-mer E-score” value does the source give for GTGTACAC here?
**A.** Its value is 0.0349.

**Q.** With CCTGTCTC as the sequence, how does the “PBM 8-mer E-score” value read?
**A.** The value was -0.0679.

**Q.** Which “PBM 8-mer E-score” value does the source give for AAGTGCAC here?
**A.** The value was 0.12.

**Q.** Which “PBM 8-mer E-score” value does the source give for AATAATAC here?
**A.** The value was 0.419.

**Q.** CAATGTAG was tested. Which “PBM 8-mer E-score” value did it give?
**A.** The value was 0.114.

**Q.** For GACGTAGA, which “PBM 8-mer E-score” value is on record?
**A.** The value was -0.116.

**Q.** AGGTCACC was tested. Which “PBM 8-mer E-score” value did it give?
**A.** Its value is -0.292.

**Q.** AGCCAGAG was tested. Which “PBM 8-mer E-score” value did it give?
**A.** The value was -0.306.

**Q.** How did the “PBM 8-mer E-score” value turn out when AGATCATG was run?
**A.** Its value is -0.228.

**Q.** With ACGCCGGG as the sequence, how does the “PBM 8-mer E-score” value read?
**A.** The value was -0.17.

**Q.** With ACCCAGCT as the sequence, how does the “PBM 8-mer E-score” value read?
**A.** Its value is -0.0885.

**Q.** For AGTCATGA, which “PBM 8-mer E-score” value is on record?
**A.** Its value is 0.0663.

**Q.** With CTCCGTAC as the sequence, how does the “PBM 8-mer E-score” value read?
**A.** Its value is -0.194.

**Q.** For CGATAAAG, which “PBM 8-mer E-score” value is on record?
**A.** Its value is 0.152.

**Q.** How did the “PBM 8-mer E-score” value turn out when ACACGCTA was run?
**A.** Its value is 0.113.

**Q.** Which “PBM 8-mer E-score” value does the source give for GCGACTTA here?
**A.** Its value is -0.0922.

**Q.** For ATGGTAGG, which “PBM 8-mer E-score” value is on record?
**A.** Its value is 0.0483.

**Q.** Which “PBM 8-mer E-score” value does the source give for ATTGTGCC here?
**A.** Its value is -0.00899.

**Q.** For CAAAGTCG, which “PBM 8-mer E-score” value is on record?
**A.** The value was -0.05.

**Q.** How did the “PBM 8-mer E-score” value turn out when AGTGGTAG was run?
**A.** The value was 0.00056.

**Q.** How did the “PBM 8-mer E-score” value turn out when GCGCGAAC was run?
**A.** Its value is -0.099.

**Q.** CTTAGGGC was tested. Which “PBM 8-mer E-score” value did it give?
**A.** Its value is -0.313.

**Q.** With CAGTACGA as the sequence, how does the “PBM 8-mer E-score” value read?
**A.** Its value is 0.0694.

**Q.** How did the “PBM 8-mer E-score” value turn out when CTAGATTA was run?
**A.** Its value is 0.207.

**Q.** ACCGAAAC was tested. Which “PBM 8-mer E-score” value did it give?
**A.** Its value is -0.143.

**Q.** TCCAACGA was tested. Which “PBM 8-mer E-score” value did it give?
**A.** Its value is -0.124.

**Q.** With TAGTTCGA as the sequence, how does the “PBM 8-mer E-score” value read?
**A.** Its value is 0.233.

**Q.** How did the “PBM 8-mer E-score” value turn out when AACGGGAT was run?
**A.** The value was 0.0519.

**Q.** Which “PBM 8-mer E-score” value does the source give for CTATAAAC here?
**A.** The value was 0.223.

**Q.** For CTACGCCC, which “PBM 8-mer E-score” value is on record?
**A.** Its value is -0.179.

**Q.** How did the “PBM 8-mer E-score” value turn out when CGTTTTAC was run?
**A.** Its value is -0.0398.

**Q.** For CCACCAGG, which “PBM 8-mer E-score” value is on record?
**A.** Its value is -0.238.

**Q.** How did the “PBM 8-mer E-score” value turn out when AGTAGGGC was run?
**A.** The value was -0.239.

**Q.** Which “PBM 8-mer E-score” value does the source give for ACCCTTTG here?
**A.** Its value is -0.137.

**Q.** How did the “PBM 8-mer E-score” value turn out when AGGGATGA was run?
**A.** Its value is -0.0342.

**Q.** For CAGAATTA, which “PBM 8-mer E-score” value is on record?
**A.** Its value is 0.202.

**Q.** Which “PBM 8-mer E-score” value does the source give for CAGTGGCA here?
**A.** The value was -0.0859.

**Q.** With GTTCCATA as the sequence, how does the “PBM 8-mer E-score” value read?
**A.** The value was 0.117.

**Q.** Which “PBM 8-mer E-score” value does the source give for ACAAATGT here?
**A.** The value was 0.0847.

**Q.** With CAGCAAGG as the sequence, how does the “PBM 8-mer E-score” value read?
**A.** Its value is -0.204.

**Q.** For GAGGAAGA, which “PBM 8-mer E-score” value is on record?
**A.** Its value is -0.133.

**Q.** AAATTTCC was tested. Which “PBM 8-mer E-score” value did it give?
**A.** The value was 0.224.

**Q.** For AGTAGGAT, which “PBM 8-mer E-score” value is on record?
**A.** Its value is -0.047.

**Q.** ATACTAGA was tested. Which “PBM 8-mer E-score” value did it give?
**A.** The value was 0.187.

**Q.** How did the “PBM 8-mer E-score” value turn out when TTCCAAAA was run?
**A.** Its value is 0.182.

**Q.** For CGCGGGTA, which “PBM 8-mer E-score” value is on record?
**A.** The value was -0.0527.

**Q.** For AACGACTG, which “PBM 8-mer E-score” value is on record?
**A.** The value was -0.101.

**Q.** AGCTGCAT was tested. Which “PBM 8-mer E-score” value did it give?
**A.** Its value is -0.0375.

**Q.** How did the “PBM 8-mer E-score” value turn out when CACCTACG was run?
**A.** The value was -0.0764.

**Q.** How did the “PBM 8-mer E-score” value turn out when ATGAGTTA was run?
**A.** The value was 0.0893.

**Q.** Which “PBM 8-mer E-score” value does the source give for ACGTGTAT here?
**A.** Its value is 0.137.

**Q.** Which “PBM 8-mer E-score” value does the source give for AACACTAG here?
**A.** Its value is 0.00131.

**Q.** With ATACGGCA as the sequence, how does the “PBM 8-mer E-score” value read?
**A.** The value was 0.135.

**Q.** Which “PBM 8-mer E-score” value does the source give for ATCCTCTG here?
**A.** Its value is 0.0138.

**Q.** AATTGCAT was tested. Which “PBM 8-mer E-score” value did it give?
**A.** The value was 0.243.

**Q.** Which “PBM 8-mer E-score” value does the source give for CTAGATAA here?
**A.** The value was 0.128.

**Q.** CCGCGCTA was tested. Which “PBM 8-mer E-score” value did it give?
**A.** The value was -0.12.

**Q.** Which “PBM 8-mer E-score” value does the source give for ATATCAAT here?
**A.** Its value is 0.325.

**Q.** ACATCTGA was tested. Which “PBM 8-mer E-score” value did it give?
**A.** The value was 0.0482.

**Q.** With CGAAGTAA as the sequence, how does the “PBM 8-mer E-score” value read?
**A.** Its value is 0.194.

**Q.** Which “PBM 8-mer E-score” value does the source give for GCGATACA here?
**A.** Its value is -0.0291.

**Q.** Which “PBM 8-mer E-score” value does the source give for ATGGCCCC here?
**A.** The value was -0.275.

**Q.** With ATCTGGGG as the sequence, how does the “PBM 8-mer E-score” value read?
**A.** The value was -0.296.

**Q.** With CGTAAGAC as the sequence, how does the “PBM 8-mer E-score” value read?
**A.** The value was -0.107.

**Q.** With GCGTCCCA as the sequence, how does the “PBM 8-mer E-score” value read?
**A.** Its value is -0.164.

**Q.** How did the “PBM 8-mer E-score” value turn out when AAAGCCCT was run?
**A.** Its value is -0.263.

**Q.** For TAGTATAA, which “PBM 8-mer E-score” value is on record?
**A.** The value was 0.384.

**Q.** With AACCTCCG as the sequence, how does the “PBM 8-mer E-score” value read?
**A.** The value was -0.234.

**Q.** For TGAAACAA, which “PBM 8-mer E-score” value is on record?
**A.** The value was 0.196.

**Q.** With TACGCAGA as the sequence, how does the “PBM 8-mer E-score” value read?
**A.** The value was -0.0765.

**Q.** Which “PBM 8-mer E-score” value does the source give for ATCCATGC here?
**A.** The value was -0.188.

**Q.** Which “PBM 8-mer E-score” value does the source give for CCAACGTA here?
**A.** Its value is -0.0592.

**Q.** With CCCTGAGA as the sequence, how does the “PBM 8-mer E-score” value read?
**A.** The value was -0.276.

**Q.** CGAGGCCC was tested. Which “PBM 8-mer E-score” value did it give?
**A.** The value was -0.217.

**Q.** GGACAACC was tested. Which “PBM 8-mer E-score” value did it give?
**A.** The value was -0.234.

From the supplement of paper PMC4466236
